Experimental data as given in article PMC4336329 (PLoS ONE, 2015).
The campaign covered roughly 310,000 compounds. About 2,200 (0.71%) showed an effect of 50% or more. Effects have a minus sign here. This is one part of the list.

Molecular target: human ether-à-go-go-related gene (hERG) potassium channel (human, UniProt Q12809)
Experiment: primary screen, population patch clamp on CHO cells stably expressing hERG

Sequence of human ether-à-go-go-related gene (hERG) potassium channel (Q12809 whole entry, looked up): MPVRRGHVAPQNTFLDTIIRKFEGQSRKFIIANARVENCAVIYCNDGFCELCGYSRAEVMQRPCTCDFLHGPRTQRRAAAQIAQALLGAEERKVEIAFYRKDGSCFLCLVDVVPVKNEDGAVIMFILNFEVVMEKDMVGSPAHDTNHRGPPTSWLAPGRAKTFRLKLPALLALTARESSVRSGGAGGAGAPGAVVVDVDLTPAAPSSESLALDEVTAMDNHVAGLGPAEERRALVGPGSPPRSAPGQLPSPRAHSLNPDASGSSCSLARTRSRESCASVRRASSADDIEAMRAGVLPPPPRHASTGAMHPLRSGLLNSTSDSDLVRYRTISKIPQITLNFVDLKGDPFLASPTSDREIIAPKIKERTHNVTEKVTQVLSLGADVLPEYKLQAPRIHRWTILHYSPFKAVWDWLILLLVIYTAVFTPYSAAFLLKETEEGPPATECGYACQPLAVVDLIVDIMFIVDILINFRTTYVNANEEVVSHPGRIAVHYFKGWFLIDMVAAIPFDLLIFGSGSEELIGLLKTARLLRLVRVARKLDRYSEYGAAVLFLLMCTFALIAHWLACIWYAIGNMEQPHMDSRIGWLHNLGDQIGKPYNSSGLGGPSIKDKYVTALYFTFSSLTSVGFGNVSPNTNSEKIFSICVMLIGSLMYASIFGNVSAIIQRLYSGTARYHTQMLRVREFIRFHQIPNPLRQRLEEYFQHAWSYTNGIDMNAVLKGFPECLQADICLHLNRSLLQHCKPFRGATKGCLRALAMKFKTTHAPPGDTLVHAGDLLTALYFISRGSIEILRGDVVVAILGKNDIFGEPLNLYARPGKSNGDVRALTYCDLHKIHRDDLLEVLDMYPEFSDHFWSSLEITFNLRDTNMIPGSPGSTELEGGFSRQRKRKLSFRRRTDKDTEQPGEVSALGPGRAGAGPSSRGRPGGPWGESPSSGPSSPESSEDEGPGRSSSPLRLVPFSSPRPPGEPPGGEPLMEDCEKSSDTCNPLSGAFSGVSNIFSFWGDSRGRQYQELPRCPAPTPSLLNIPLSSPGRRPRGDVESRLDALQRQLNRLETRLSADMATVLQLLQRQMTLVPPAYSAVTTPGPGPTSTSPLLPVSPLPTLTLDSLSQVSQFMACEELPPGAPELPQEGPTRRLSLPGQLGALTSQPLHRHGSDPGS

Going from O=C(NNc1cc(Br)c(O)c(Br)c1)c1ccccc1 to Cc1cc(C)nc(NNC(=O)c2ccccc2O)n1, the “hERG current change (%, negative = inhibition) at 1uM” value rises from 4.03% to 16.3%.

First: CN(C(=O)COC(=O)c1ccc(C#N)cc1)c1ccccc1
Second: Cc1c(C(=O)c2ccc(N(C)C)cc2)c2ccccn2c1CCC#N
The “hERG current change (%, negative = inhibition) at 1uM” value of the first is lower: 6.48% for the first, 14.7% for the second.

Compared with Cc1cc(C)cc(-n2nc(C)cc2N)c1, COc1ccc(C(=O)Oc2cc(N)n(S(=O)(=O)c3ccc(C)cc3)n2)cc1 is higher in “hERG current change (%, negative = inhibition) at 1uM” value: -7.91% for the first, 15.8% for the second.

First: CC(=O)c1c(C)[nH]c(C(=O)OCc2ccc([N+](=O)[O-])cc2)c1C
Second: COc1ccc(CNC(=O)C(C)c2ccc([N+](=O)[O-])cc2)cc1 (stereo not shown)
The “hERG current change (%, negative = inhibition) at 1uM” value of the first is lower: 5.66% for the first, 7.69% for the second.

First: O=C(Cc1cccs1)NCc1ccccc1Br
Second: O=C(NCc1cccs1)c1cc(-c2cccc(Cl)c2)on1
The “hERG current change (%, negative = inhibition) at 1uM” value of the first is higher: 15.2% for the first, 8.06% for the second.

Compared with O=C(Nc1nc2ccccc2[nH]1)c1ccccc1O, Cc1ccccc1NC(=O)NCCc1nc2ccccc2[nH]1 is lower in “hERG current change (%, negative = inhibition) at 1uM” value: 19.2% for the first, -3.49% for the second.

First: COC(=O)C1=C(C)Nc2c(c(=O)n(C)c(=O)n2C)C1c1ccncc1 (stereo not shown)
Second: COCCOC(=O)C1=C(C)NC(=O)NC1c1ccco1 (stereo not shown)
The “hERG current change (%, negative = inhibition) at 1uM” value of the first is higher: 22.4% for the first, 1.1% for the second.

Going from COc1ccc(OCC(=O)NCc2cccnc2)cc1 to COc1ccc(CC(=O)NCc2nnc(SCCOc3ccccc3)n2C)cc1, the “hERG current change (%, negative = inhibition) at 1uM” value falls from 6.2% to -0.497%.

Going from Cc1ccc(C)c(NC(=O)CN2C(=O)CC(C)S(=O)(=O)c3ccccc32)c1 (stereo not shown) to COc1cc(NC(=O)CN2C(=O)c3ccccc3S2(=O)=O)cc(OC)c1, the “hERG current change (%, negative = inhibition) at 1uM” value falls from 6.33% to 3.15%.

Compared with COc1ccc(-n2c(SCC(=O)Nc3ccccc3OC)nc(O)c(Cc3ccccc3)c2=O)cc1, COc1ccc(CCCC(=O)N/N=C/c2ccccc2OC)cc1 is higher in “hERG current change (%, negative = inhibition) at 1uM” value: 4.38% for the first, 10.9% for the second.

Compared with CCN1CCN(CCCNC(=O)CNC(=O)c2nn(-c3ccc(OC)cc3)c(=O)c3ccccc23)CC1, CCOc1ccc(C(=O)NC2CCN(CC(=O)NCc3cccs3)CC2)cc1 is lower in “hERG current change (%, negative = inhibition) at 1uM” value: 12.9% for the first, 0.829% for the second.

Compared with CC(C)NS(=O)(=O)c1ccc(NC(=O)CCc2ccccc2)cc1, N#Cc1ccccc1OCC(=O)Nc1cccc(S(=O)(=O)N2CCCC2)c1 is higher in “hERG current change (%, negative = inhibition) at 1uM” value: -10.5% for the first, 0.957% for the second.

Going from Cc1ccc2oc3nc(C)c(C(=O)Nc4cccc(C(F)(F)F)c4)cc3c(=O)c2c1 to Cc1ccc(-c2nc(-c3ccc(Cl)cc3)sc2CC(=O)O)c(C)c1, the “hERG current change (%, negative = inhibition) at 1uM” value rises from 3.46% to 18.3%.

Compared with COC(=O)C1=C(c2ccc(C(C)=O)cc2)C[C@@H]2CC[C@H]1N2C(=O)N1CCCC1, C/C(=N/OC(=O)c1ccc(C)cc1)c1ccc(N2C(=O)C3CCCCC3C2=O)cc1 (stereo not shown) is higher in “hERG current change (%, negative = inhibition) at 1uM” value: 10.2% for the first, 16.6% for the second.

Going from Cc1nc(N[C@@H](Cc2ccccc2)C(=O)O)c2oc3ccccc3c2n1 to O=C(CSc1ccc2ccccc2c1)Nc1ncccn1, the “hERG current change (%, negative = inhibition) at 1uM” value rises from 7.68% to 8.81%.

First: CCCCNC(=O)OCCSCCS(=O)(=O)c1ccc(Cl)cc1
Second: Cc1ccc(S(=O)(=O)NCCC(=O)NC2CCC(C)CC2)cc1 (stereo not shown)
The “hERG current change (%, negative = inhibition) at 1uM” value of the first is higher: 7.82% for the first, 7.2% for the second.

Going from CC(C)c1ccc(/C=C2\CC/C(=C\C=N\N(C)C)C2=O)cc1 to Cc1ccc(/C=C2\CCCC3=C2NC(=S)NC3c2ccc(C)cc2)cc1 (stereo not shown), the “hERG current change (%, negative = inhibition) at 1uM” value falls from 10.2% to 8.39%.

First: Cc1cc(S(=O)(=O)Nc2c(NC3CCCCC3)c3ccccc3oc2=O)ccc1F
Second: COc1ccc(S(=O)(=O)N2CCOCC2)cc1NC(=O)COc1ccccc1
The “hERG current change (%, negative = inhibition) at 1uM” value of the first is higher: 9.34% for the first, -12.1% for the second.

Compared with CC1=CC(C)(C)N2C(=O)C3(C(C#N)=C(N)OC4=C3C(=O)CC(C)(C)C4)c3cc(C)cc1c32 (stereo not shown), Cc1coc2c1C(=O)C(=O)c1c-2ccc2c1CCCC2(C)C is higher in “hERG current change (%, negative = inhibition) at 1uM” value: 7.1% for the first, 13.4% for the second.

Compared with CCc1ccc(NC(=O)C/C(C)=N/NC(=O)OCc2ccc(OC)cc2)cc1, COc1ccc(CC(=O)Oc2ccccc2C)cc1 is higher in “hERG current change (%, negative = inhibition) at 1uM” value: -10.1% for the first, 13.6% for the second.

Going from C=CCNC(=S)NNC(=O)c1ccc(OC(C)C)cc1 to O=C(O)c1ccc(S(=O)(=O)NC2CC2)cc1, the “hERG current change (%, negative = inhibition) at 1uM” value falls from 23% to 10.7%.

Going from CC1CC(C)CN(C(=O)COC(=O)Cc2ccc(Cl)cc2)C1 (stereo not shown) to O=C(COC(=O)Cc1ccc(Br)cc1)Nc1ccc(N2CCOCC2)cc1, the “hERG current change (%, negative = inhibition) at 1uM” value falls from 11.7% to 10%.

Going from Cc1ccc(C(=O)O)cc1N1C(=O)CCCC1=O to Cc1c(NC(=O)c2cccs2)cccc1C(=O)O, the “hERG current change (%, negative = inhibition) at 1uM” value falls from 10.7% to -7.28%.

Compared with CCOC(=O)c1c(NCc2ccc3c(c2)OCO3)c2ccccc2[nH]c1=O, COc1cc(C(=O)Nc2ccc3c(c2)OCO3)ccc1-n1cnnn1 is lower in “hERG current change (%, negative = inhibition) at 1uM” value: 0.983% for the first, -17.8% for the second.

Compared with CC(=O)N(NC(N)=O)C(C)CC(=O)C1C(C)C=CCC1(C)C (stereo not shown), CCN(CC)CCNC(=O)c1ccccn1.O=C([O-])/C=C\C(=O)[O-] is higher in “hERG current change (%, negative = inhibition) at 1uM” value: 8.25% for the first, 9.35% for the second.

Going from CCOc1ccc(CC(=NCCc2ccccc2)C2=C(O)CC(C)(C)CC2=O)cc1OCC to OCCCNc1ncnc2sc(-c3ccccc3)cc12, the “hERG current change (%, negative = inhibition) at 1uM” value falls from 6.42% to 4.89%.

First: Nc1ccccc1SCC(=O)Nc1nccs1
Second: O=C(CN1CCN(S(=O)(=O)c2ccccc2)CC1)Nc1ccnn1C1CCCC1
The “hERG current change (%, negative = inhibition) at 1uM” value of the first is higher: 18.3% for the first, -7.43% for the second.

Compared with O=C(Nc1ccccc1C(=O)NCCN1CCOCC1)c1ccco1, COc1cc(OC)cc(C(=O)Nc2ccc(NC(=O)c3ccco3)c(Cl)c2)c1 is higher in “hERG current change (%, negative = inhibition) at 1uM” value: 4.54% for the first, 11.6% for the second.

Compared with CCOC(=O)c1cnc2c(C(=O)OCC)cnn2c1N, CCc1nnc(NC(=O)C2CCN(S(=O)(=O)c3ccc(C)cc3)CC2)s1 is higher in “hERG current change (%, negative = inhibition) at 1uM” value: 11.1% for the first, 11.3% for the second.

Compared with CCn1nc(NS(=O)(=O)c2ccc([N+](=O)[O-])cc2)c2cc3ccc(C)cc3nc21, O=[N+]([O-])c1c(NCCCO)cc(Sc2ccc(Cl)cc2)c2nonc12 is higher in “hERG current change (%, negative = inhibition) at 1uM” value: 10.5% for the first, 11.5% for the second.

First: Cc1ccc(C(=O)ONc2ccc(N=NC(=O)c3ccccc3O)cc2)cc1
Second: COc1cccc(C(=O)NCC2CCCN(C(=O)c3ccc(C=O)cc3)C2)c1OC (stereo not shown)
The “hERG current change (%, negative = inhibition) at 1uM” value of the first is lower: 10.6% for the first, 15.2% for the second.

First: COc1cccc(/C=C2\SC(=S)N(c3cccnc3)C2=O)c1OC
Second: Cc1cccc(OC2CCN(Cc3c(C(=O)N4CCCC4)nc4ccccn34)CC2)c1
The “hERG current change (%, negative = inhibition) at 1uM” value of the first is higher: 8.38% for the first, -20.2% for the second.

Compared with COc1ccc(NC(=O)NC2(C(=O)N3CCN(C)CC3)CCCCC2)cc1, O=C(Cc1ccc(Cl)c(Cl)c1)NCC1(N2CCOCC2)CCCCC1 is lower in “hERG current change (%, negative = inhibition) at 1uM” value: 10.9% for the first, 5.37% for the second.

For CN1CCCCCC1C(=O)N1CCC(N2CCC(C(=O)N3CCOCC3)CC2)CC1 (stereo not shown), the “hERG current change (%, negative = inhibition) at 1uM” value was 2.86%.
